Whole data set: some 33,000 sequences, median “E-score (-0.5 to 0.5)” near -0.043, cut for the highest 2% near 0.37. Some of the results follow.
target: T1, Upc2 (UniProt Q12151); assay: PBM E-score (8-mer binding enrichment) (E-score (-0.5 to 0.5)); higher = stronger / more preferred TF binding; most listed sequences are background and not binding sites; details: protein concentration: 200 nM; construct: GST-full length
T1 sequence: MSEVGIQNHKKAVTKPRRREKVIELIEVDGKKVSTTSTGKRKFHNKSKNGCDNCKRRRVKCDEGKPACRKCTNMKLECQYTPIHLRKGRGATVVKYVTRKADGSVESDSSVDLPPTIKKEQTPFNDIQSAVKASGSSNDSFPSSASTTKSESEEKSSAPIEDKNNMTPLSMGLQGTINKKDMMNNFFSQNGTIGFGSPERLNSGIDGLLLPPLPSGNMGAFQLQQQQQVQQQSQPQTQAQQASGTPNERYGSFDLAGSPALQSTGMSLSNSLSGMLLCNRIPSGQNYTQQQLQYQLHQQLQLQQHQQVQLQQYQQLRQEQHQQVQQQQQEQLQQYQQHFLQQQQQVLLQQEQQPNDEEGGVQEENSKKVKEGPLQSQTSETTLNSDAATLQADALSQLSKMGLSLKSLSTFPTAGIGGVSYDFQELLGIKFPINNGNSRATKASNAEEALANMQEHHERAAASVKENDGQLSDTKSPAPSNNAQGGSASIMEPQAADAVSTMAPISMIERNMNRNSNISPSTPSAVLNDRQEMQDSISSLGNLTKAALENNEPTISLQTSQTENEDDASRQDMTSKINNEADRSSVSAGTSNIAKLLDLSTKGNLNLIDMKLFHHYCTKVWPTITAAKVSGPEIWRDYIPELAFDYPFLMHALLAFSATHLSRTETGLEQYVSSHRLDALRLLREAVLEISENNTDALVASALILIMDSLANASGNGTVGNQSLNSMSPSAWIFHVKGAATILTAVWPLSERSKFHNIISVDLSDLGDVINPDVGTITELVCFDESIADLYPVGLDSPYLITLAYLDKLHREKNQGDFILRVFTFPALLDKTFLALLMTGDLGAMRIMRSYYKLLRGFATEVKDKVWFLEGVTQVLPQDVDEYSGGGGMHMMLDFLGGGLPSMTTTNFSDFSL
Protocol: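 Universal 'all 10-mer' protein binding microarrays (Agilent AMADID 015681) probed with GST-tagged S. cerevisiae TFs (full-length or DBD) made by in vitro transcription/translation (PURExpress), about 100-200 nM. Bound TF was detected with fluorescent anti-GST. Each ungapped 8-mer (which stands for itself and its reverse complement) is scored by the PBM enrichment score (E-score), a modified Wilcoxon-Mann-Whitney statistic from -0.5 to +0.5, computed with the Universal PBM Analysis Suite. Scale: above 0.35 generally sequence-specific binding.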

Sequence | PBM E-score
GGATGACA | -0.0406
ATCCAAGG | -0.255
CTTAGTTA | -0.0101
ACAGTCGG | -0.0363
TAACACGA | 0.177
AGTCCTAA | -0.022
ACTCTGTG | -0.00359
CCACATCA | -0.125
AACCCCGG | 0.00566
ATGGATTC | -0.116
ACCCCTGA | -0.07
AAGGTCAT | -0.0585
CGGTGCCC | -0.119
AATTGAGT | -0.0417
CTGTAACA | -0.134
AAAAAAGT | 0.102
ACTATCGG | -0.0107
CAATGTCA | 0.0141
CTTCCGTA | 0.311
ACGTAATC | 0.0625
TCACGGCA | -0.167
CCGAGGCG | 0.129
AGTGACGG | -0.228
ACTTTGCC | -0.0954
AGAGAAAA | -0.104

Sequence | PBM E-score
ATTGGACG | -0.0372
GTATATAA | 0.298
GTCAGTGA | -0.0712
TCCGATCA | -0.017
ACATATAT | 0.0896
ACGACGGC | 0.333
CACTACGG | -0.133
AGTGTTTA | 0.0568
CAGCTGCC | -0.218
AGCCAAGA | -0.159
CCCTTTGC | -0.00867
ATTTCGGC | 0.00601
ATTTAAAT | 0.0767
GGATTGCC | -0.0654
ATGACTCG | 0.0492
ACACGAGC | 0.273
ACAATCCA | -0.0823
AACTTAGC | -0.171
AGATAAAG | -0.0496
CATTCGCG | 0.128
CGACGGGC | 0.152
CTAACGGC | -0.0778
CAAGCATG | -0.098
CAATTCAA | -0.0733
ACCTTAAT | -0.139

Sequence | PBM E-score
AATCGGGC | -0.0317
CTAGTACC | -0.148
GTAGGATA | -0.0462
ACGAGAAG | 0.277
AATCCACG | -0.0217
TAAGCATA | 0.155
ATGAAGTC | -0.149
CAGTCCAA | -0.285
ACACGAGA | 0.244
ATGGGCCA | -0.0834
AATATAAC | 0.0166
AAATGGTT | -0.00064
CGCCCGAC | -0.034
AGCGGACA | 0.0699
ACATAAAC | 0.233
AATAAACC | 0.0364
ATTAACGC | 0.143
TCGCCAGA | -0.147
AGACAGCA | -0.0983
CATACTCG | 0.238
ACCGAAAG | 0.108
AAGTGTTA | -0.0352
TACTACAA | 0.0682
ACGTGATA | 0.0836
AAAAAAGA | -0.107

Sequence | PBM E-score
CTACTCGA | 0.165
TCACCGAA | -0.117
AATTAGCA | 0.0793
GGTGTCTA | -0.0324
AGGGTAGC | -0.213
GGGTGAAA | -0.159
AGATTAAG | -0.119
AGTCGACG | 0.0955
ATTAACTC | -0.021
TGGCGCAA | 0.0234
GCCGTGAA | -0.0188
AGAGCACC | -0.173
TCAATACA | -0.115
AATGAAAG | -0.0345
AAGAGTCA | -0.11
AGCGAGTG | 0.204
GTGTGCTA | -0.00345
ATAACACC | 0.0522
CATGCGTC | -0.117
ATATCTCG | 0.187
AGCCGAGC | 0.0562
GAGCGAAC | 0.173
CGGTATGA | -0.0944
GAGCGTCA | -0.069
ATAAGCAG | 0.0183

Sequence | PBM E-score
ACCCGGGC | -0.17
ACTATACC | 0.172
CGTACGGA | 0.382
CCTAGAGG | -0.25
GTTGACCA | -0.0491
AAGTTACT | -0.0859
TGTTCTAA | 0.0668
AACGGGAC | 0.171
CACCCCGA | -0.194
GCACGTCC | -0.0769
CGCGCGCA | 0.158
ATCCTCGC | 0.0716
CCCTCTAA | -0.181
CAACTCGC | 0.21
ATAGCGAA | 0.0983
GTCACAGA | 0.0181
CACGTACG | 0.346
TGAGAGAA | -0.0463
AGACGGTC | -0.102
CTTATTTA | 0.149
TAGGCCGA | -0.253
CTGTTTTA | 0.0439
CAACATGC | 0.0797
CGAGTGGA | 0.0933
AAAAGGTC | -0.0486

Sequence | PBM E-score
GCACCGGA | 0.0523
CCAATACC | -0.108
CGTCCGTA | 0.315
ACCTAGAT | -0.166
CTTGTCCA | -0.18
CAACAATC | 0.0112
CAAAAAAA | -0.0129
CATCAGCG | 0.0238
TATATGGA | -0.0267
ACGTGTTC | -0.0353
TACGCTAA | 0.22
AGTTCCAC | -0.0526
ATCCAAAC | 0.184
CGGCGCGC | 0.0167
AACCAGCC | -0.161
AGATTCAC | -0.143
CCAAGTGG | -0.186
GTATTGCA | 0.0375
TATATTCA | 0.167
TCTGTGAA | -0.0917
CCCGATAA | 0.0463
CAGTTATA | 0.0276
TAGTACCA | -0.148
CGCTCGGA | 0.163
AACCCCTC | -0.0538

Sequence | PBM E-score
CCGTAGAC | 0.0288
ACCTTCCT | -0.172
CAATAACG | 0.0742
AGGGGGGC | -0.271
AACTAGCC | -0.217
GAAGCGGC | -0.00253
GACGTGAA | 0.0104
ACAGCAAG | 0.0422
ACGGCCCC | -0.172
CTAGTCGC | -0.128
CAGGAACA | -0.0158
CTAGACAA | -0.228
CCTTGCCC | -0.056
AGCCAAGG | -0.257
AAAACTTA | 0.0259
TCCGTCAA | -0.117
ATAACTTG | -0.0841
ATTTACAA | 0.0516
AATTTCAG | -0.178
AATAACCG | 0.199
GGTCCGAA | 0.0775
ACACCAAC | -0.115

Reference: the supplement of paper PMC3334620
